Reference: the RNAGym collection of RNA variant scans (doi:10.7554/elife.90254)
The source gives no read counts; variants with many changes may rest on few reads.

B1: LINE1-mini (parent)
chain: GGCAGAGCUCAACACAGCGUGGCAAAGUGGCUGUGGCUAGACUGCC

Variants of: B1
Assay: self-cleavage, relative activity (ratio to wild type); higher = more cleavage; in vitro, sequencing; the parent is a self-cleaving ribozyme

Variant | self-cleavage
C3G G5C C13U U32A | 0.03
C3G G5C C18A | 0.08
C3G G5C C45A | 1.51
C3G G5C G7C C18A | 0.03
C3G G5C U20A G22A C45U | 0.05
C3G G5U A6C | 0.98
C3G G5U C18G G30U C46U | 0.06
C3G G5U G7C G22U G33C | 0.01
C3G G5U G22U G27U C31G G35U U38G | 0.02
C3G G5U G40U C45A | 0.04
C3G G7A A12U C23U C46U | 2.75
C3G G7A A39C | 0.11
C3G G7A G19U | 0.57
C3G G7C A24U | 0.44
C3G G7C C10U C31A G40A | 0.04
C3G G7C G19U | 0.06
C3G G7U C8A C45G | 0.42
C3G G7U C8G A12C G44A C46U | 0.02
C3G G7U C10U | 0.13
C3G G7U C13G C23A G30A U34C G40A | 0.13
C3G G7U C13U A25C G27U | 0.09
C3G G7U C15G C18U C23U G27A A39G | 0.06
C3G G17A C18A G19U | 0.07
C3G G17A C18U A39G C42A | 0.03

Variant | self-cleavage
C3G G17A C23U A26U G30A C42G C45U | 0.08
C3G G17A G44C | 0.58
C3G G17C G44C | 0.54
C3G G19A G40U | 0.09
C3G G19A U38C C45G | 0.92
C3G G19C A24C | 0.06
C3G G19C A24U U43C | 0.03
C3G G21A A39U G44U | 0.19
C3G G21A G22C C23G | 0.23
C3G G21A G33U | 0.04
C3G G21U U38A A39G | 0.72
C3G G22C C23A A25C C37U | 0.04
C3G G22U G27A G36A C37G A41U | 0.01
C3G G27A C31A G35C | 0.19
C3G G27A C31U G33A | 0.1
C3G G27A G44U | 1.17
C3G G27A U28A U32C | 0.06
C3G G27A U38C C42G | 0.16
C3G G27C G44A | 0.59
C3G G30C G33C | 0.08
C3G G30C G33C C37U | 0.06
C3G G33A C45A | 0.05
C3G G33A G36U | 0.27
C3G G33C C45U | 0.08

Variant | self-cleavage
C3G G33U C42A | 0.04
C3G G33U C45U | 0.22
C3G G35A A39U | 0.04
C3G G40C U43A C45A | 0.05
C3G U9A A12U U20C A39G | 0.1
C3G U9A G36C A39U | 0.02
C3G U9C C31U G35U G40C C42U G44C | 0.02
C3G U9C C42U | 0.07
C3G U9C G19A G21A G35A | 0.03
C3G U9G A11C G21A C31A G40C C46U | 0.01
C3G U9G C23U | 0.71
C3G U9G C31G G33U C37U | 0.11
C3G U9G C37U | 0.23
C3G U9G C45U | 0.35
C3G U9G G17A C31G | 0.26
C3G U20A A26C | 0.04
C3G U20C A25G C42G C46G | 0.02
C3G U20C U34A | 0.03
C3G U20G G22U G29U C37U | 0.14
C3G U20G G40U | 0.24
C3G U20G U32G | 0.05
C3G U28A C46U | 0.1
C3G U28C G40U A41C C46U | 0.06
C3G U32G C42G | 0.15

Variant | self-cleavage
C3U A4C C10U G19A | 0.09
C3U A4C C13U C15U A24C G36A | 0.59
C3U A4C G5C C18G C46A | 0.03
C3U A4C G7C G17C U20C | 0.1
C3U A4C G29U C46A | 0.09
C3U A4C G29U G33C C45U | 0
C3U A4G C8A G21A G29A U38C A41C | 1.06
C3U A4G C8U A24U | 0.03
C3U A4G C23A | 0.09
C3U A4G C45G | 0.06
C3U A4U A39G | 0.11
C3U A4U G17U G30A | 0.15
C3U A4U G22C | 0.07
C3U A6C A11C G17U | 0.03
C3U A6C C13U C18U G44C | 0.1
C3U A6C G21U U38G G44C | 0.01
C3U A6C G30A G36C | 0.1
C3U A6C U32A C45G | 0.08
C3U A6G A11C G21U | 0.01
C3U A6G A14C | 0.11
C3U A6G A25G | 0.05
C3U A6G C15U G36A | 0.12
C3U A6G C18U | 0.04
C3U A6G G19U G36A | 0.02

Variant | self-cleavage
C3U A6G G30A U34A | 0.11
C3U A6G U9C A11U G33C G36U C37U A41G | 0.01
C3U A6U C13A A25C A41C | 0.03
C3U A6U G44U | 0.51
C3U A6U U9A G19U G21U G22A U32A C37A C46A | 0.42
C3U A11G C15U | 0.05
C3U A11G C18U | 0.04
C3U A11G G19A | 0.04
C3U A11G G33A | 0.06
C3U A11U A14U G19A A39C | 0.02
C3U A11U A24U A25G G33A U38G | 0.03
C3U A11U A25C | 0.02
C3U A11U G21C A24G | 0.11
C3U A11U G29C C46A | 0.01
C3U A12C A16C G35C | 0.02
C3U A12C A16U C18G U38C | 0
C3U A12C G22A C23A | 0.03
C3U A12G A25C G30U | 0.04
C3U A12G C15G C37G | 0.41
C3U A12U A26U G27A | 0.07
C3U A12U G19U A24C U32C | 0
C3U A14C G21U | 0.16
C3U A14C G29U | 0.28
C3U A14C G35U | 0.07

Variant | self-cleavage
C3U A14C G44A C46G | 0.05
C3U A14G A24C | 0.08
C3U A14G A26C U34C | 0.05
C3U A14G U20C A26U | 0.49
C3U A14U C18U | 0.1
C3U A14U C23A | 0.06
C3U A14U C23U G44U | 0.1
C3U A14U G29U | 0.22
C3U A16C A26C G33U C45G | 0.02
C3U A16C A26U | 0.01
C3U A16C G17A C18A | 0
C3U A16C G17C G19U C37U C42U | 0.06
C3U A16G C37U | 0.04
C3U A16G G21A G44A | 0.86
C3U A16G U28G C45U | 0.21
C3U A16G U32A | 0.02
C3U A16G U32G | 0.1
C3U A16G U34A G40U | 0.07
C3U A16U A25U G29A | 0.05
C3U A16U A39G | 0.1
C3U A16U G19U G27C G30C U38A | 0.03
C3U A16U G21U G22U G29A | 0.19
C3U A16U U20G A26C G35U | 0.06
C3U A16U U38C | 0.07

Variant | self-cleavage
C3U A24C C31U | 0.02
C3U A24G G40C | 0.02
C3U A24U G27C G36A | 0.33
C3U A24U G44C | 0.07
C3U A24U U38G C46G | 0.01
C3U A25U G29A C45G | 0.12
C3U A26C A41C | 0.04
C3U A26C U38A | 0.08
C3U A26G U28A | 0.16
C3U A26U U38G | 0.03
C3U C8A C10G | 0.03
C3U C8A G22U | 0.13
C3U C8A G29A A39U | 0.09
C3U C8A U28C | 0.23
C3U C8A U32G U38C | 0.69
C3U C8U A12C G17A C18U C23G G30C U43A | 0.02
C3U C8U C10A C13U G19U G21A A41U | 0.02
C3U C8U G22C G44U | 0.06
C3U C10A A11G A14G C15U A39C G40A G44C | 0.01
C3U C10A A11G A25C C46G | 0
C3U C10A A11G C31G | 0.01
C3U C10A A12G C13G | 0.03
C3U C10A A26C | 0.01
